Data: PubChem BioAssay AID1745845 (National Center for Advancing Translational Sciences (NCATS), 2022)
The campaign covered roughly 360,000 compounds. About 2,600 (0.72%) were called active. Inconclusive results, whose numbers are uncertain, are shown with a selection of clear calls. Calls follow the shape of the dose curve; as a rule, active = well fitted inhibition curve with a large enough effect; inconclusive = small, poorly fitted or top-dose-only effect; inactive = no such curve, though single readings can be large or run the other way. Where the call is inconclusive, the potency comes from a doubtful curve fit.

Assay: Primary qHTS for Inhibitors of ATXN expression; also: nearly all actives have a fitted effect of over 55% in size
Conditions: HEK-293 ATXN2-luciferase reporter, luminescence, 24 h; activity change, negative = inhibition: at 57 µM (top of the series)
Summary of the method: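 ATXN2-luciferase reporter cells (luciferase flanked by upstream and downstream ATXN2 gene portions) were treated 24 h at 37 °C with compounds at up to 57 uM. SteadyGlo luminescence gave expression; GF-AFC fluorescence gave viability.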
% is scaled to controls: 0 for no effect and ±100 for the full control effect; potency is read from the fitted curve at half-maximal effect; tags tell the direction and shape of the fitted curve.

Row | SMILES | activity change, negative = inhibition | Potency
1 | CCCn1c(NCc2c[nH]c3ccccc23)nc2ccccc21 | inactive: 5.2% | –
2 | COc1cc(OC)cc(-c2ccc3ncc4ccc(=O)n(-c5ccc(N6CCNCC6)c(C(F)(F)F)c5)c4c3c2)c1 | – | active: 19.3 µM
3 | NC(=O)CN1C(=O)/C(=c2\sc3nc(=O)c(Cc4ccccc4)nn3c2=O)c2ccccc21 | inactive: 0.473% | –
4 | Brc1cccc(CN2CCCCCC2)c1 | inactive: 2.67% | –
5 | CCCCC(=O)N(C)c1c(CC)nc2c(OCc3ccc(C(F)(F)F)cc3)cccn12 | – | inconclusive: 39.8 µM [inhibitor, single point]
6 | COC(=O)C1=C(C)N(Cc2ccccc2)C(=NCCc2ccccn2)N[C@H]1c1cccc(C(F)(F)F)c1 | – | active: 35.5 µM
7 | COc1ccc(N(C(=O)CCl)C(C(=O)NCCc2ccccc2)c2cccs2)cc1 (centres undefined) | – | active: 28.2 µM
8 | COc1ccc2sc(C)nc2c1NC(C)=O | – | inconclusive: 25.1 µM [inhibitor, partial curve, poor fit]
9 | Cc1ccc(NC(=O)C2CCN(C(=O)c3cnn(-c4ccccc4)c3-n3cccc3)CC2)cc1Cl | – | inconclusive: 31.6 µM [inhibitor, single point]
10 | COc1cccc(-c2cc(C(F)(F)F)n3nc(C(=O)N4CCCCC4c4cccnc4)cc3n2)c1 (centres undefined) | – | inconclusive: 13.4 µM [inhibitor, partial curve, poor fit]
11 | COc1ccc(/C=C2\CCc3ccccc3C2=O)cc1Cn1nc(C)cc1C | inactive: -26.7% | –
12 | CC(=NNC(=O)c1ccncc1)c1ccc2ccccc2c1O | – | inconclusive: 6.7 µM [inhibitor, full curve, poor fit]
13 | COc1ccc(CC2(CO)CCN(Cc3cccc(OC)c3OC)CC2)cc1 | inactive: -7.68% | –
14 | C#CCN(C[C@@H]1[C@@H](OC(=O)NCc2ccccc2F)[C@@H](OC(=O)NCc2ccccc2F)Cn2c(=O)ccc(=O)n21)S(=O)(=O)c1ccc(C)cc1 | – | active: 3.98 µM
15 | O=C(/C=C/NNC(=O)c1ccccc1)c1ccc(Br)cc1 | – | inconclusive: 22.4 µM [inhibitor, single point]
16 | CC(C)(C)C(=O)Nc1ccc2nc(SCc3ccccc3)sc2c1 | – | inconclusive: 39.8 µM [inhibitor, single point]
17 | COc1cc(OC)c2c(-c3cccc(-c4ccc(O)cc4)c3)cc(=O)oc2c1 | – | inconclusive: 25.1 µM [inhibitor, single point]
18 | COc1ccc(CNCCC(c2ccc(OC(C)C)cc2)c2ccccc2OC)cc1 (centres undefined) | – | active: 25.1 µM
19 | Cc1ccc2cc(CCNC(=O)c3cc4ccccc4o3)c(=O)[nH]c2c1C | – | inconclusive: 25.1 µM [inhibitor, single point]
20 | O=C(Nc1cccc(Cl)c1)Nc1nnc(-c2ccncc2)s1 | – | inconclusive: 10 µM [inhibitor, partial curve, poor fit]
21 | Cc1ccc(CON=C2CCN(c3ncc(C(F)(F)F)cc3Cl)CC2)cc1 | inactive: -10.4% | –
22 | COc1cc(Cl)ccc1OC1(C)CCN(Cc2ccc(-c3ccccn3)cc2)C1 (centres undefined) | inactive: -37.9% | –

Row | SMILES | activity change, negative = inhibition | Potency
23 | COc1ccc(COc2cc3oc(=O)c4cc(C(C)O)ccc4c3cc2OC)cc1 (centres undefined) | – | inconclusive: 27.3 µM [inhibitor, partial curve]
24 | O=C(CCN1C(=O)/C(=C\c2ccc(F)cc2)SC1=S)Nc1ccc(O)cc1 | inactive: 6.31% | –
25 | CC1=C(C(=O)Nc2ccccc2)C2(CCCCC2)C(C#N)=C(SCC(N)=O)N1 | inactive: 0.297% | –
26 | CN(C)Cc1nc2ccccc2c(=O)n1Cc1nc(-c2cc3ccccc3o2)cs1 | – | inconclusive: 0.158 µM [inhibitor, full curve, poor fit]
27 | CN(C)c1ccc(/C=N/NC(=O)CN(c2cccc(Cl)c2)S(C)(=O)=O)cc1Br | – | inconclusive: 31.6 µM [inhibitor, single point]
28 | CC(=O)N(C)c1ccc(NC(=O)/C=C/c2ccccc2Cl)cc1 | inactive: 49.8% | –
29 | CCOC(=O)c1ccccc1NC(=O)c1cn(CC)c2nc(C)ccc2c1=O | inactive: -1.66% | –
30 | CCN(c1ccccc1)S(=O)(=O)c1ccc2c(c1)OCCO2 | inactive: -0.803% | –
31 | Cc1c(NC(=O)NC(=O)c2ccc(F)cc2)c(=O)n(-c2ccccc2)n1C | inactive: -1.88% | –
32 | C[C@@H]1COC(=O)[C@H](NC(=O)OCC2c3ccccc3-c3ccccc32)C/C=C\C[C@@H](CC(=O)N[C@@H](CO)Cc2ccccc2)C(=O)N1 | inactive: 6.11% | –
33 | CSc1nc(C)cc(OCC(=O)N/N=C/c2ccccc2O)n1 | – | active: 14.1 µM
34 | Cc1cc(C(=O)Nc2cccc(C(F)(F)F)c2)c2c(C)nn(-c3cccc(F)c3)c2n1 | – | inconclusive: 39.8 µM [inhibitor, single point]
35 | CS(=O)(=O)c1cccc(C(=O)Nc2ccc(-c3nc4ccccc4[nH]3)cc2)c1 | – | inconclusive: 2.82 µM [inhibitor, full curve]
36 | COc1ccc(-n2ncc(Cl)c(Cl)c2=O)cc1 | – | inconclusive: 4.74 µM [inhibitor, single point]
37 | Cc1cccc2c1-c1sc(C(=O)Nc3ccccc3N3CCN(C)CC3)cc1CO2 | – | active: 28.2 µM
38 | C=CC[C@@H](CC(=O)N[C@H](CO)Cc1ccccc1)C(=O)N[C@H](COC(=O)[C@@H](CC=C)CC(=O)OC(C)(C)C)Cc1c[nH]c2ccccc12 | – | inconclusive: 39.8 µM [inhibitor, single point]
39 | O=c1c2ccccc2oc2ccc(C#CC3(O)CCCCC3)cc12 | – | inconclusive: 39.8 µM [inhibitor, single point]
40 | N#CC1=C(N)n2c(s/c(=C\c3ccco3)c2=O)=C(C#N)C1c1ccco1 (centres undefined) | – | inconclusive: 15.8 µM [inhibitor, single point]
41 | CCOc1ccc(S(=O)(=O)N/N=C(\C)c2ccc(Cl)c(Cl)c2Cl)cc1 | – | inconclusive: 25.1 µM [inhibitor, single point]
42 | COc1ccccc1C(=O)O/N=C(\N)c1ccccn1 | – | inconclusive: 28.2 µM [inhibitor, single point]
43 | CCOc1nc(N=C(N)N)nc2c(C)cccc12 | – | inconclusive: 39.8 µM [inhibitor, single point]
44 | CCOC(=O)c1c(NC(=S)N2CCOCC2)sc2c1CCN(C(=O)OCC)C2 | – | inconclusive: 39.8 µM [inhibitor, partial curve, poor fit]
